According to article PMC4336329 (PLoS ONE, 2015):
The campaign covered roughly 310,000 compounds. About 2,200 (0.71%) showed an effect of 50% or more. The effect is printed as a negative number. The list shows a part of the results.

Each compound was assayed against human ether-à-go-go-related gene (hERG) potassium channel (human, UniProt Q12809) (assay: primary screen, population patch clamp on CHO cells stably expressing hERG).
Sequence of human ether-à-go-go-related gene (hERG) potassium channel (Q12809 whole entry, looked up): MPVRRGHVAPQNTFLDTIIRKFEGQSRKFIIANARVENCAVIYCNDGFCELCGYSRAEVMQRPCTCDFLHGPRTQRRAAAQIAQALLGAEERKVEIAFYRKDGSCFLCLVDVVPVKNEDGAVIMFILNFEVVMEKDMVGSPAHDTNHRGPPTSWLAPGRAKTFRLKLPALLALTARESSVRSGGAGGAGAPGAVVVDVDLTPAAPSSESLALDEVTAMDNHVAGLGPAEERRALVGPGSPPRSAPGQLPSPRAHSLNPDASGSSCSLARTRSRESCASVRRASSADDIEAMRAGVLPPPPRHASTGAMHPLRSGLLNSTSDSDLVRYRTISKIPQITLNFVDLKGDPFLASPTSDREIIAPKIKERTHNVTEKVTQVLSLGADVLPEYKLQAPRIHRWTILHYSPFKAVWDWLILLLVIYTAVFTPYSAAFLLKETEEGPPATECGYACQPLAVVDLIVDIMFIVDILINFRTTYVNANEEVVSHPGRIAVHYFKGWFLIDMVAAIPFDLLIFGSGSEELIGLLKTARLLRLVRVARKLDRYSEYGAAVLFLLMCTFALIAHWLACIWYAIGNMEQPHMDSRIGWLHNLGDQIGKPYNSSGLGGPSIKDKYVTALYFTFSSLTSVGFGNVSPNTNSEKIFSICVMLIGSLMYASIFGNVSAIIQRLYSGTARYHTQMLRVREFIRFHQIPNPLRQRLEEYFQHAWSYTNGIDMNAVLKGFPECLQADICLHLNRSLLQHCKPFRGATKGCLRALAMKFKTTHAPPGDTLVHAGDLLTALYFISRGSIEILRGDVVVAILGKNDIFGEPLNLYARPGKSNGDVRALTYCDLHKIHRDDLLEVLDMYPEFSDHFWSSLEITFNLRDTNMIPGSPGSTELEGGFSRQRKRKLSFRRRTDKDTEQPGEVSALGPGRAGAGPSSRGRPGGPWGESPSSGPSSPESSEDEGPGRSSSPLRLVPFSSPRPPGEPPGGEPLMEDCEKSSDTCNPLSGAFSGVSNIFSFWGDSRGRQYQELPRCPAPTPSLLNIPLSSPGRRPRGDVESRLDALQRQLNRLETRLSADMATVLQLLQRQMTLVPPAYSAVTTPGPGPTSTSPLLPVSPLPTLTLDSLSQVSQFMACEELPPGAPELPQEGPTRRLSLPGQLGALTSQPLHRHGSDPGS

Row | Structure (SMILES) | hERG current change (%, negative = inhibition) at 1uM
1 | O=C1CCN(CCc2ccccc2)CCN1[C@H](CO)Cc1ccccc1 | 7.43%
2 | O=C(O)CCC(=O)N1N=C(c2ccccc2)CC1c1ccc(Br)cc1 (stereo not drawn) | 14.5%
3 | O=C1CN(C(=O)CSc2nnnn2C2CC2)c2ccccc2N1 | 6.49%
4 | C1=CCC(CN2CCN(C3CCCCCC3)CC2)CC1.O=C(O)C(=O)O (stereo not drawn) | -7.17%
5 | CCc1ccc(C(=O)CSc2nnc(C3CC3)n2C2CC2)cc1 | -0.707%
6 | CCNc1ccc(C(=O)N/N=C/c2c(C)nn(-c3ccccc3)c2N2CCCC2)cc1[N+](=O)[O-] | 17.2%
7 | Cc1cc(-c2onc(C)c2C(=O)O)no1 | 8.64%
8 | Cc1ccc(-c2csc3nc[nH]c(=O)c23)cc1C | 18.1%
9 | COc1cc(CC(=O)O)ccc1OCc1ccccc1 | 9.17%
10 | Nc1ccc(-c2sc(N)nc2-c2ccccc2)cc1 | 5.15%
11 | CC(=O)Nc1c2c(nn1-c1ccccc1)CSC2 | 13.5%
12 | CC(=O)Nc1ccc(-n2nnnc2SCC(=O)NCc2cccs2)cc1 | 2.9%
13 | O=C(N/N=C/c1ccc(OCCCF)cc1)c1cc(OCC(F)(F)F)ccc1OCC(F)(F)F | 10.4%
14 | CC(C)(C)n1nc2c(c1NC(=O)Cc1ccc(F)cc1)CSC2 | 7.49%
15 | COc1ccc(-c2cn3cccnc3n2)cc1NC(=O)c1cc(OC)c(OC)c(OC)c1 | 1.63%
16 | CS(=O)(=O)N1CCCC(C(=O)NCCCN2CCc3ccccc3C2)C1 (stereo not drawn) | 8.29%
17 | COc1ccc(-c2nc(C(N)=O)c3[nH]c(=O)n(-c4cccc(C)c4)c3n2)c(OC)c1 | 9.19%
18 | CC(C)(Oc1ccc(Br)cc1)C(=O)N1CCc2ccccc21 | 13%
19 | CC(=O)c1oc2ccccc2c1NC(=O)CCCN1C(=O)c2ccccc2C1=O | 14.2%
20 | Nc1nc(Cl)cc(Oc2ccc(Cl)cc2)n1 | 10.1%
21 | CC(=O)Nc1ccc(S(=O)(=O)NNC(=O)c2ccc(C)cc2)cc1 | -11.2%
22 | CCc1nnc(NC(=O)/C=C/c2ccco2)s1 | 17.9%
23 | Cc1c(NC(=O)C(C)c2ccc(CC(C)C)cc2)c(=O)n(-c2ccccc2)n1C (stereo not drawn) | 9.19%

Row | Structure (SMILES) | hERG current change (%, negative = inhibition) at 1uM
24 | O=S(=O)(c1cccc(S(=O)(=O)N2CCC(n3nnc4ccccc43)CC2)c1)N1CCCCC1 | -13.6%
25 | COc1ccc(CN2CCN(Cc3cccc(Oc4ccccc4)c3)CC2)c(OC)c1OC.O=C(O)C(=O)O | 14.8%
26 | Cc1ccc(S(=O)(=O)N2CCN(C(=O)c3c(-c4ccccc4)noc3C)CC2)cc1C | 3.34%
27 | CC(C)(C)C(=O)/C=C(\N)c1ccncc1 | 6.39%
28 | O=C1CSC(c2ccc([N+](=O)[O-])cc2)N1Cc1ccccc1 (stereo not drawn) | -6.48%
29 | CCc1ccc(NC(=O)Cn2ncc3c4ccccc4n(C)c3c2=O)cc1 | 10.7%
30 | C#CC1(O)CC(C)NCC1(C)CCC#N (stereo not drawn) | 5.8%
31 | O=C1CCCCN1CCC(=O)N1CCCC(N2CCN(c3cccc(Cl)c3)CC2)C1 (stereo not drawn) | 3.35%
32 | Cn1c2ccccc2c2n[nH]c(=O)nc21 | 8.6%
33 | Cc1sc2ncn(CC(=O)Nc3cccc(S(N)(=O)=O)c3)c(=O)c2c1-c1ccccc1 | 12.2%
34 | Cc1ccc(C)c(-n2nnnc2Sc2nnnn2-c2ccccc2)c1 | 4.33%
35 | O=C(O)C1CCCN1C(=O)NC1CCCCC1 (stereo not drawn) | 17.1%
36 | Cc1cccc(-n2c(=O)c3c(C)c(C)sc3n(CC(N)=O)c2=O)c1 | -8.97%
37 | O=C(CCc1nnc(C2CCCCC2)o1)NCCCOc1cccnc1 | 14.1%
38 | COc1ccccc1-c1cc(C(F)(F)F)n2ncc(C(=O)N3CCc4ccccc4C3)c2n1 | 7.36%
39 | Cc1cc([N+](=O)[O-])nn1Cc1ccccc1F | 14.5%
40 | COCCn1c(SCC(=O)Nc2cc(C)on2)nc2c(c1=O)SC(C)C2 (stereo not drawn) | 9.29%
41 | COC(=O)[C@@H]1C[C@@]2(O)[C@@H](O)[C@@H](O)[C@@H](O)C[C@H]2N1C/C=C/c1ccccc1 | 11.9%
42 | Br.CCc1ccc(OCC(=O)NN2Cc3ccccc3C2=N)cc1 | -0.0505%
43 | O=C(CN1C(=O)S/C(=C\c2ccc(O)cc2)C1=O)c1ccccc1 | 12.8%
44 | Cc1noc(C)c1C(=O)Nc1ccccc1N1CCOCC1 | 8.06%
45 | Cc1ccc(C)c(CN2C(=O)C3(OCCCO3)c3ccccc32)c1 | -3.52%
46 | CCOC(=O)Cc1cc(=O)n2[nH]c(C)cc2n1 | 8.16%

Row | Structure (SMILES) | hERG current change (%, negative = inhibition) at 1uM
47 | Cc1cc(C)n2nc(SCc3nc4ccccc4[nH]3)nc2n1 | 2.47%
48 | NS(=O)(=O)c1ccc(NC(=O)COc2ccc(S(=O)(=O)N3CCCC3)cc2)cc1 | 14.5%
49 | COc1ccc2c(c1)C(SCC(=O)NCc1ccccc1)CC(C)(C)O2 (stereo not drawn) | 7.68%
50 | CC(C)C(=O)NNS(=O)(=O)c1ccccc1[N+](=O)[O-] | 6.04%
51 | COc1ccccc1CN=C1Nc2ccccc2CS1 | 10.5%
52 | Cc1ccccc1N=C1SC(CC(=O)Nc2ccc3ccccc3c2)C(=O)N1Cc1ccccn1 (stereo not drawn) | 7.59%
53 | CC(=O)c1ccc(S(=O)(=O)NC2CCSc3ccccc32)cc1 (stereo not drawn) | 2.78%
54 | C/C(=N\Nc1ccc(Cl)c(C(=O)O)c1)c1ccc(Br)s1 | 5.27%
55 | O=C(Cc1cn2ccsc2n1)OCc1nc2ccccc2s1 | 10.6%
56 | Cc1cccc(N/C(=N/S(=O)(=O)c2ccccc2)c2ccccc2)n1 | 1.73%
57 | O=C(Nc1nc2ccc(S(=O)(=O)N3CCCCC3)cc2s1)c1cccnc1 | -16.9%
58 | Cc1ccc2nc(-c3cccnc3)c(Nc3ccccc3C)n2c1 | 10.3%
59 | COc1ccc(NC(=O)CCSCCC(=O)Nc2ccc(OC)cc2OC)c(OC)c1 | 6.35%
60 | Cc1ccc(S(=O)(=O)N2CCN(C(=O)c3cccs3)CC2)c(C)c1 | 0.149%
61 | COc1ccccc1NC(=O)CSc1nnc(-c2ccco2)n1N | 19.7%
62 | O=C(/C=C/c1ccc(F)cc1)NC(=S)N1CCCCC1c1cccnc1 (stereo not drawn) | -23%
63 | CCC(=O)N1CCc2cc(S(=O)(=O)CCC(=O)NC(C)CC)ccc21 (stereo not drawn) | 7.83%
64 | CCOC(=O)c1ccccc1NC(=O)COC(=O)CCCOc1ccccc1 | 8.06%
65 | CC(C)(C)NC(=O)C(c1ccc(O)cc1)N(Cc1ccco1)C(=O)Cn1nnc(-c2cccs2)n1 (stereo not drawn) | -2.46%
66 | CCNC(=O)COc1ccc(Br)cc1Cl | 7.56%
67 | COc1ccc(C(=O)OCC(=O)NC(=O)NC2CCCC2)c(OC)c1 | 12.7%
68 | O=C(CSc1ccccc1C(=O)N1CCN(c2ccccc2)CC1)N1CCCC1 | 13.9%
69 | CCOc1cc(Br)c(CC(=O)NC2CCCCCC2)cc1OCC | 16.6%

Row | Structure (SMILES) | hERG current change (%, negative = inhibition) at 1uM
70 | COc1ccc(CNc2nccs2)cc1OC | 13%
71 | CC1CN(O)C2CCc3c(no[n+]3[O-])C12O (stereo not drawn) | 5.34%
72 | COc1ccc(N(C(=O)c2snc(C(N)=O)c2N)C(C(=O)NC2CCCCC2)c2ccc(C)o2)c(OC)c1 (stereo not drawn) | 6.4%
73 | COc1ccccc1-c1nnn(CC#N)n1 | 3.77%
74 | COC(=O)c1c(NC(=O)CCCC(=O)O)sc(C)c1C | 11.9%
75 | O=C(NNC(=O)c1ccc(Cn2cccn2)o1)NC12CC3CC(CC(C3)C1)C2 | 17.3%
76 | O=C(Nc1ccc(Oc2ncnc3cc(Cl)ccc23)nc1)Nc1cccc(C(F)(F)F)c1 | 0.781%
77 | O=C(CNC(=O)c1ccncc1)N/N=C/c1ccccn1 | 11.8%
78 | CCC(NS(=O)(=O)c1ccc(C)cc1)C(=O)N1CCOCCOCCOCC1 (stereo not drawn) | 20.3%
79 | COc1ccccc1NC(=S)N(Cc1ccccn1)Cc1ccccc1Cl | -2.77%
80 | O=C(NCCCc1ccncc1)C1CCC(=O)N(Cc2ccc(Cl)cc2)C1 (stereo not drawn) | 0.771%
81 | CCOC(=O)C1CCCN(S(=O)(=O)c2nc3nc(C)cc(C)n3n2)C1 (stereo not drawn) | 14.2%
82 | CCOC(=O)c1sc(NC(=O)c2cccnc2)c(C#N)c1C | 24%
83 | O=C(NCc1ccc2c(c1)OCO2)c1ccc(CS(=O)(=O)c2cccc(C(F)(F)F)c2)o1 | 6.15%
84 | CCOC(=O)c1c(-c2ccccc2)n(C)c2ccc(O)cc12 | 7.42%
85 | COc1ccc(-c2noc3c2-c2nc(-c4ccc(Cl)cc4)sc2CC3)cc1 | 4.12%
86 | CC1(CCc2ccccc2)NC(=O)N(Cc2nnc(-c3ccccc3Br)o2)C1=O (stereo not drawn) | -2.2%
87 | CN(C)CCNC(=O)CCCNC(=O)Cn1cnc2sc3c(c2c1=O)CCCC3 | -0.494%
88 | CC(C)(C)C1CCC(C(=O)Nc2nccs2)CC1 (stereo not drawn) | 10.1%
89 | COc1cccc(/C=C/C(=O)Nc2ccc3c(c2)OCCO3)c1OC | 15.5%
90 | Cc1cccc(N/N=C/c2ccc(O)c(O)c2O)c1 | 8.98%
